# Measurements published in PubChem BioAssay AID1745853 (National Center for Advancing Translational Sciences (NCATS), 2022).
# “And” between values parts separate entries of the source, which are not always exact repeats. Equal values may be shown once. The list shows a part of the results. Further columns of the screen follow, without active or inactive calls.
# How the values were obtained:
# Assay in all cases: Primary Screen for Target Class Profiling of Small Molecule Inhibitors of Methyltransferases
# [1] = molecular target: Glycine N-methyltransferase (Homo sapiens) (UniProt Q14749); conditions: purified enzyme, MTase-Glo SAH luminescence; measured here: GNMT inhibition; at 40 µM; stronger effect = lower value
# Excerpt: (§1) PI: Matthew D. Hall Ph.D. and Quinlin M. Hanson Ph.D.
# (§2) National Center for Advancing Translational Sciences (NCATS)
# (§3) National Institute of Health (NIH), Rockville, MD
# (§4) Target class profiling (TCP) is a chemical biology approach amenable to investigating understudied biological targets. TCP is achieved by developing a generalizable assay platform and applying it to screen a curated set of compound libraries against representative members of a target class. Small molecule methyltransferases (SMMTase) are a subclass of methyltransferase that act on metabolites to modulate signaling pathways, metabolize xenobiotics, or balance the available methyl pool. We screened four curated libraries totaling 27,574 unique compounds against the SMMTases nicotinamide N-methyltransferase (NNMT), phenylethanolamine N-methyltransferase (PNMT), histamine N-methyltransferase (HNMT), glycine N-methyltransferase (GNMT), catechol O-methyltransferase (COMT), and guanidinoacetate N-methyltransferase (GAMT). The data generated by this TCP can be leveraged for informed tool molecule development. For example, in the associated publication we identified a chemotype of HNMT-selective inhibitors. Additionally, we identified a putative SMMTase-selective inhibitor with potential as a tool molecule for studying broader methyltransferase biology.
# (§5) High-through put screening assays were developed at the National Center for Advancing Translational Science (NCATS) for the enzymes NNMT, PNMT, HNMT, GNMT, COMT, and GAMT. Enzymatic activity was measured as a function of SAM cofactor conversion using the MTase Glo kit (Promega) for all enzymes. All assays were performed in 1536-well format with substrates and SAM concentrations at KM values. Enzyme concentration and assay timing were optimized for 10-20% SAM conversion. Initial screening of 27,574 compounds was done as single-point assays using the highest compound concentration (40 uM). […] These compounds were replated in 11-point dose response and assayed against NNMT, PNMT, HNMT, GNMT, COMT, GAMT, and a counter-assay. The IC50 and efficacy (maximal response) values were determined for each dose-response curve. These values are also accounted for in the area under the curve (AUC) values.
# (§6) PROTOCOL TABLE (as described by Inglese J, Shamu CE and Guy RK. 2007)
# (§7) SEQUENCE No. (e.g., 1, 2, 3, etc.); […] (e.g., Cells, Incubation, Reagent, etc.); VALUE; DESCRIPTION.
# (§8) 1; Reagent; 2 uL; SMMTase Enzyme (2x) in reaction buffer, columns 1- 48.
# (§9) 2; Reagent; 1 uL; SAM (4x) in reaction buffer, columns 1-48.
# (§10) 3; Controls; 23 nL; DMSO in column 4; sinefungin in DMSO (0 uM - 40 uM) in 7-point 1:2 dilution series (n = 2) in column 2.
# (§11) 4; Compounds; 23 nL; Columns 5-48.
# (§12) 5; Reagent; 1 uL; Substrate (4x) in reaction buffer, columns 2-48.
# (§13) 6; Time; 20-30 min; Incubation.
# (§14) 7; Reagent; 1 uL; MTase-Glo reagent (5X), columns 1-48.
# (§15) 8; Time; 30 min; Incubation.
# (§16) 9; Reagent; 5 uL; MTase-Glo Detection reagent, columns 1-48.
# (§17) 10; Time; 30 min; Incubation, luminescence evolution.
# (§18) 11; Detection; Luminescence; ViewLux uHTS Microplate Imager (PerkinElmer).
# (§19) NOTES (numbers refer to Sequence numbers above)
# (§20) 1, 2, 5. White Medium Binding Greiner 1536-well plates (Cat #789175-F, Greiner Bio-One, Monroe, NC); Reaction buffer: 50 mM Tris, pH 8.0, 3 mM MgCl2, 1 mM EDTA, 50 mM NaCl, 1 mM DTT, and 0.1 mg/mL BSA. Evaporation was prevented by covering assay plates with metal lids containing holes to allow gas diffusion.
# (§21) 1. Six SMMTase were profiled: HNMT, GNMT, PNMT, COMT, NNMT, GAMT
# (§22) 5. The corresponding substrate was used for each enzyme: HNMT - 5.3 uM Histamine; GNMT - >500 uM Glycine; PNMT - 16.2 uM Norephinephrine; COMT - 13.7 uM Norephinephrine; NNMT - 3.8 uM Nicotinamide; GAMT - 2.5 uM Guanidinoacetate.6, 8, 10. Room temperature
# (§23) 6. Final reaction conditions: 10 nM COMT, 5 uM SAM, 15 uM norepinephrine, 50 mM Tris, pH 8.0, 3 mM MgCl2, 1 mM EDTA, 50 mM NaCl, 1 mM DTT, and 0.1 mg/mL BSA; refer to tables 2 and S1 for specific timing.
# 8. […]
# [2] = molecular target: Guanidinoacetate N-methyltransferase (Homo sapiens) (UniProt Q14353); conditions: purified enzyme, MTase-Glo SAH luminescence; measured here: GAMT inhibition; at 40 µM; stronger effect = lower value
# Excerpt: as §1, §2, §3, §4, §5, §6, §7, §8, §9, §10, §11, §12, §13, §14, §15, §16, §17, §18, §19, §20, §21, §22, §23
# 8. […]
# [3] = molecular target: Histamine N-methyltransferase (Homo sapiens) (UniProt P50135); conditions: purified enzyme, MTase-Glo SAH luminescence; measured here: HNMT inhibition; at 40 µM; stronger effect = lower value
# Excerpt: as §1, §2, §3, §4, §5, §6, §7, §8, §9, §10, §11, §12, §13, §14, §15, §16, §17, §18, §19, §20, §21, §22, §23
# 8. […]
# [4] = molecular target: Nicotinamide N-methyltransferase (Homo sapiens) (UniProt P40261); conditions: purified enzyme, MTase-Glo SAH luminescence; measured here: NNMT inhibition; at 40 µM; stronger effect = lower value
# Excerpt: as §1, §2, §3, §4, §5, §6, §7, §8, §9, §10, §11, §12, §13, §14, §15, §16, §17, §18, §19, §20, §21, §22, §23
# 8. […]
# [5] = molecular target: Phenylethanolamine N-methyltransferase (Homo sapiens) (UniProt P11086); conditions: purified enzyme, MTase-Glo SAH luminescence; measured here: PNMT inhibition; at 40 µM; stronger effect = lower value
# Excerpt: as §1, §2, §3, §4, §5, §6, §7, §8, §9, §10, §11, §12, §13, §14, §15, §16, §17, §18, §19, §20, §21, §22, §23
# 8. […]
# On the % scale 0 is the no-effect control and ±100 the full control effect.
Structure (SMILES),"activity change, negative = inhibition [1]","activity change, negative = inhibition [2]","activity change, negative = inhibition [3]","activity change, negative = inhibition [4]","activity change, negative = inhibition [5]"
CCCCN1C(=O)c2cc(C(=O)Nc3ccc(OCC)cc3)nn2CC1(C)C(=O)NC1CCCC1 (stereo unspecified),3%,4.07%,-16.4%,4.08%,2.06%
O=c1cc(-c2ccc(O)c(O)c2)oc2cc(O)cc(O)c12,-18.7%,0%,5.65%,-7.84%,-15.8%
CCc1ccccc1Nc1nn2c(=O)c3ccc(C(=O)NCCCOC(C)C)cc3nc2s1,3.21%,0.854%,4.15%,-4.85%,-0.799%
Cc1cc2[nH]c(=O)[nH]c2cc1S(=O)(=O)NCc1ccc(F)cc1,-1.33%,3.27%,-9.05%,-9.81%,-10.1%
Fc1cccc(-c2nnn3c2nc(NCCc2ccccc2)c2ccccc23)c1,0.761%,3.76%,-78.6%,3.74%,-6.02%
CCCCN1C(=O)c2cc(C(=O)Nc3ccccc3CC)nn2CC1(C)C(=O)NC1CCCC1 (stereo unspecified),-0.134%,3.21%,-3.53%,-1.78%,-0.128%
COc1cccc([S+](=O)([O-])N2CCn3cc(C(=O)NCc4ccc(Cl)nc4)nc3C2)c1,-13%,-7.22%,-1.93%,-13%,-11.6%
COc1ccccc1CC(=O)N1CCN(c2cc(-c3cccs3)[nH]n2)CC1,-5.89%,-8.38%,-3.06%,-10.6%,-8.46%
COc1ccc(-c2cc3n(n2)CC(C)(C(=O)NCc2ccccc2OC)N(c2ccc(C)cc2C)C3=O)cc1 (stereo unspecified),2.72%,1.5%,3.6%,-5.61%,-3.38%
CC(C)(CC(=O)N1CCCC1)NCC(=O)N1C[C@@H](F)C[C@H]1C#N,7.13%,8.04%,5.82%,-7.18%,2.96%
CCCn1c(=O)c2cc(Cl)ccc2n2c(SCC(=O)Nc3ccc(C)cc3C)nnc12,-1.73%,0%,7.06%,3.88%,5.02%
CC(Cc1ccco1)NC(=O)c1cc2n(n1)CCCN(Cc1ccccc1)C2=O (stereo unspecified),-8.44%,1.06%,1%,-3.03%,2.72%
Cc1ccc(CCNC(=O)CN(C)S(=O)(=O)c2ccc3[nH]c4c(c3c2)CCCC4)cc1,-1.3%,4.21%,-2.9%,-4.09%,0.437%
NC(=O)c1ccc(O[C@@H]2COCC[C@H]2NC(=O)Cc2ccc(O)cc2)cc1,-2.69%,-6.54%,-2.44%,-4.23%,-5.54%
O=S(=O)(c1ccccc1)N1CCC(Cc2ccc(CN3CCOCC3)cc2)CC1,-5.08%,0%,5.17%,-8.64%,0.415%
Cc1cc(C(=O)Cn2cc(C#N)ccc2=O)c(C)n1Cc1ccccc1,4.51%,0.848%,4.81%,-11.5%,-4.45%
Cc1ccc(NC(=O)Cn2nc3n(C)c(=O)c4ccc(C(=O)NC(C)C)cc4n3c2=O)cc1,5.96%,5.48%,5.07%,1.44%,3.92%
CC1(C(=O)NC2CCCCC2)Cc2ccccc2C(=O)N1CCN1CCOCC1 (stereo unspecified),-1.06%,4.2%,4.94%,10.8%,-2.49%
CCCOCC(=O)N1CCCC(c2cc(N3CCCC3)nc(C)n2)C1 (stereo unspecified),-4.14%,-2.36%,-2.04%,-4.87%,-1.3%
Cc1ccccc1N1CCCN(Cc2ccccc2OCCO)CC1,-5.76%,-9.87%,-37%,-6.36%,-12.9%
NC(=O)C1(N2CCCCC2)CCN(c2nc3c(S(=O)(=O)c4ccccc4)nnn3c3ccccc23)CC1,-9.32%,4.91%,-48.2%,-10.3%,-3.37%
O=C1Cc2cc(CCN3CCN(c4nsc5ccccc45)CC3)c(Cl)cc2N1,-13.9% and -8.03%,4.27% and -3.1%,-2.14% and 1.65%,-10.3% and -30.4%,-0.646% and -15.5%
CC[C@@H](C)[C@H]1O[C@]2(CC[C@@H]1C)C[C@@H]1C[C@@H](C/C=C(\C)[C@@H](O[C@H]3C[C@H](OC)[C@@H](O[C@H]4C[C@H](OC)[C@@H](O)[C@H](C)O4)[C@H](C)O3)[C@@H](C)/C=C/C=C3\CO[C@@H]4[C@H](O)C(C)=C[C@@H](C(=O)O1)[C@]34O)O2,,2.66%,,-9.9%,8.65%
C[S+](=O)([O-])N1CCC(c2nnc3n2C(C(=O)NC2CCCCC2)CC3)CC1 (stereo unspecified),-6.96%,-6.32%,-5.23%,-12.7%,-7.43%
N=c1sc2c(n1CC(=O)c1ccc([N+](=O)[O-])cc1)CCCC2,,-10.4%,,-15.9%,-4.52%
Cc1cccc(OCC(=O)N2CCCC(c3[nH]ccc3C(N)=O)C2)c1 (stereo unspecified),-3.04%,-0.905%,1.73%,0.504%,2.22%
Cc1ccc(NS(=O)(=O)c2cc3c(cc2C)n(C)c(=O)n3C)cc1Cl,9.58%,0%,8.4%,-5.95%,6.22%
C/C=C/C=C/C=C/C(=O)O[C@@H]1C=C(CO)C(O)(C(=O)OC)[C@@]2(C)CCCC(C)(C)C12 (stereo partly specified),-1.02%,4.8%,4.99%,-9.98%,-3.03%
CCCN1C(=O)c2cc(C(=O)NCCc3cccs3)nn2CC1(C)C(=O)NC1CCCC1 (stereo unspecified),1.06%,1.18%,-9.26%,6.43%,1.1%
OC[C@H]1O[C@@H](OC[C@H]2O[C@@H](OC/C=C/c3ccccc3)[C@H](O)[C@@H](O)[C@@H]2O)[C@@H](O)[C@@H]1O,-3.33%,0.668%,3.4%,-13.1%,-0.317%
